“Also recorded” adds a separate entry of the source.
Assays:
[1] = molecular target: purified recombinant SD1/2 protein; test: ITC binding of peptides to purified recombinant SD1/2 protein; conditions: for Kd: 25°C, 20 mM NaPi (pH 6.8), 50 mM NaCl, 0.5 mM EDTA
Description: We purchased APP17 and scrambled sc-APP17 peptides from the same commercial provider as Rice and colleagues ([Rice et al., 2019]; Figure 1A). For displacement experiments, we additionally synthesized fluorescent APP17-TMR and sc-APP17-TMR peptides labeled with TAMRA (5 (6)-carboxytetramethylrhodamine; Figure 1A). […]. […] In all subsequent experiments, we used the commercial APP17 peptide validated for binding to recombinant SD1/2 protein and GB1a/2 receptors in HEK293T cells.
APP17 (Ac-[…]-NH2; [Rice et al., 2019]) and sc-APP17 (acetyl-[…]-amide) peptides were from Insight Biotechnology, London, England (>98% purity). ESI-LC-MS (Poroshell, 300 SB-C18, 2.1×75 mm, Agilent Technologies, Santa Clara, CA, USA) and RP-UPLC (Acquity, Waters Corporation, Milford, CT, USA) were used to confirm peptide mass and purity, respectively. ITC experiments were carried out in a microcalorimeter (Microcal ITC200, GE Healthcare, Chicago, IL, USA) at 25°C with a stirring speed of 600 rpm in a buffer containing 20 mM NaPi (pH 6.8), 50 mM NaCl, and 0.5 mM EDTA. For titration, APP17 or sc-APP17 (each 300 μM) were injected (first injection 0.5 μl, followed by 25 injections of 1.5 μl) into the sample cell containing purified recombinant SD1/2 protein (30 μM) ([Schwenk et al., 2016]). Control measurements of peptide versus buffer were subtracted from the peptide versus SD1/2 measurements. Data were analyzed with Microcal ITC200 Origin software, using a one-site binding model.

GB1a/2 receptors [2] = molecular target: T1, GB1a/2 receptors (Homo sapiens, UniProt O75899+Q9UBS5); test: SRE-luciferase accumulation assay (Gαqi/PLC) in HEK293T-Gαqi cells; conditions: for Bottom (best-fit): Std. Error r35, 95% CI r41; for Top (best-fit): Std. Error r36, 95% CI r42
T1 sequence (Q9UBS5 15-961 limits assumed): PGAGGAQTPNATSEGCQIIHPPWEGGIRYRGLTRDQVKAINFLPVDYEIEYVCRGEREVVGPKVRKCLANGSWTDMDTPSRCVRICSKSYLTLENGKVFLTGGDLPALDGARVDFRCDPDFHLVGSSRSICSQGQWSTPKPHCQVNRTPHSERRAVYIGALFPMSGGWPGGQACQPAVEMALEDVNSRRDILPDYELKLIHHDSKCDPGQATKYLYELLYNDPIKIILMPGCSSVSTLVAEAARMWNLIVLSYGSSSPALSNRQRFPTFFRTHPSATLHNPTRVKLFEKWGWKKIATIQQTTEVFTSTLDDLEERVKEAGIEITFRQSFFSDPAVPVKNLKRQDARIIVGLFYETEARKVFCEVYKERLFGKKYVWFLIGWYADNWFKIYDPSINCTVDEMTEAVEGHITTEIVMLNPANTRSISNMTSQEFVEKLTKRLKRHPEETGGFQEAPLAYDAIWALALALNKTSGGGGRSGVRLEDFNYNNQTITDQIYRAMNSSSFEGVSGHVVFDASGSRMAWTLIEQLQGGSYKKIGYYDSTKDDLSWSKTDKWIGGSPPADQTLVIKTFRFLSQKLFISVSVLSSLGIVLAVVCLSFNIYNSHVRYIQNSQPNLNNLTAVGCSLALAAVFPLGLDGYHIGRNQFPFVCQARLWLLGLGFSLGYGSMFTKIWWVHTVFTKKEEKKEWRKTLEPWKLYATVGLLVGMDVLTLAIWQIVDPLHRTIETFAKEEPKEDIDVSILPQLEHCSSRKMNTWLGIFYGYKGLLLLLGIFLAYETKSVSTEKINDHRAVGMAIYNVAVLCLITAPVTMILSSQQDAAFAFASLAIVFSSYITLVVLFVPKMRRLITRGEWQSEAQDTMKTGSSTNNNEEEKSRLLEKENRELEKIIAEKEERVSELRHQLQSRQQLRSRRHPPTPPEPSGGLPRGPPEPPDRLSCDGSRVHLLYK
T1 sequence (O75899 42-941 partner): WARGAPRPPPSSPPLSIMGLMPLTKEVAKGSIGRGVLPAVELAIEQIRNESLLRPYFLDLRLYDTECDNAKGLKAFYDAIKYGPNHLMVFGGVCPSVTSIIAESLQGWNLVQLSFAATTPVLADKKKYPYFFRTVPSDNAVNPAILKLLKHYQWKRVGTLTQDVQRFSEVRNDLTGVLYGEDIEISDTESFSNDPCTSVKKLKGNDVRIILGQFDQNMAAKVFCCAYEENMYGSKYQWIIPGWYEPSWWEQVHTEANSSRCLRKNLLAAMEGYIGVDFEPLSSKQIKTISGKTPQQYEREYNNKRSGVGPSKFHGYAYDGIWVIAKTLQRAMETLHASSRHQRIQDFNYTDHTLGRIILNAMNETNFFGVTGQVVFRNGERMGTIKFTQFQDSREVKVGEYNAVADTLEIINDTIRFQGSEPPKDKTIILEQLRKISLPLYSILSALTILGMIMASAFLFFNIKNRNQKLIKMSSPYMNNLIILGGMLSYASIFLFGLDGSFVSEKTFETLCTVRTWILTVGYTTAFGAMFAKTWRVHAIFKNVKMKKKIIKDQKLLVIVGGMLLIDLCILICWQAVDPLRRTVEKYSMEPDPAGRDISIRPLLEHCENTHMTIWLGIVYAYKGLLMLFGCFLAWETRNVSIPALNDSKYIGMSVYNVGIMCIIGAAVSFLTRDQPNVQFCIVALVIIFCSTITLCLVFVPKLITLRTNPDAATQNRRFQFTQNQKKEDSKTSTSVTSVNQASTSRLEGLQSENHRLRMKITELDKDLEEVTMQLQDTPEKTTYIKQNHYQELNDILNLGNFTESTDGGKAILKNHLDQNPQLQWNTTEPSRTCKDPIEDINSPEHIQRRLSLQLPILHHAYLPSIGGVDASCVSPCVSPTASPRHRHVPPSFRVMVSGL

[3] = system: GB2 protein levels at glutamatergic synapses; test: GB2 immunofluorescence at vGluT1/PSD95 synapses of cultured hippocampal neurons; format: cell-based, mouse; conditions: 5 μM, 1 hr; DIV14
Protocol: It is conceivable that prolonged exposure of cultured hippocampal neurons to APP17 affects synaptic GBR levels, for example, by stabilizing GB1a/2 receptors at the cell surface or displacing APP from GB1a/2 receptors ([Hannan et al., 2012]; [Dinamarca et al., 2019]). […] The functional effects of APP17 previously observed in cultured neurons ([Rice et al., 2019]) are therefore not caused by altered GBR levels at synapses.
Cultured hippocampal neurons (DIV14) on glass coverslips were treated with 5 µM APP17 or sc-APP17 for 1 hr, fixed with PBS (Life Technologies) containing 4% PFA (Sigma) and 4% sucrose (Sigma) and permeabilized with PBS containing 0.2% Triton X-100 (Sigma) and 10% normal donkey serum (Abcam). Neurons were washed with PBS and blocked with PBS containing 10% normal donkey serum (Abcam). Primary guinea pig anti-GB2 (Synaptic Systems), rabbit anti-vGluT1 (Synaptic Systems), and mouse anti-PSD-95 (Synaptic Systems) antibodies were incubated for 2 hr at room temperature. For GBR quantification, we used a GB2 antibody because the available GB1a antibody may compete with APP17 for binding to SD1. […] The GB2 fluorescence in z-stacked (maximum intensity) images was quantified at these synapses. The average GB2 fluorescence at synapses for each image represents one data point in Figure 6B.

GB1a/2 receptors [4] = molecular target: T1, GB1a/2 receptors; test: BRET assay of G protein activation (Gαo-RLuc / Venus-Gγ2) in HEK293T cells; format: cell-based; set-up: Flag (N); expressed in transfected cells; host or cells: HEK293T cells stably expressing chimeric Gαqi; conditions: for BRET change by peptide alone (in words): 1 or 10 μM peptide, no APP695; for BRET change by peptide with APP695 (in words): APP695 in cis or in trans, 1 or 10 μM; for GABA-induced BRET change in presence of peptide (in words): peptide and GABA at 1 or 10 μM
Protocol: We directly tested whether APP17 influences G protein activation by GBRs in transfected HEK293T cells. […] HEK293T cells were transiently transfected with Flag-GB1a, Flag-GB2, Gαo-RLuc, Gβ2, and Venus-Gγ2 plasmids with or without APP695. In order to ensure APP695 binding to GB1a/2 in trans a pool of HEK293T cells expressing APP695 was mixed with a pool of HEK293T cells expressing Flag-GB1a, Flag-GB2, Gαo-RLuc, Gβ2, and Venus-Gγ2. Transfected cells were seeded into 96-well microplates (Greiner Bio-One) at 100,000 cells/well. After 18 hr, cells were washed and coelenterazine h (5 µM, NanoLight Technologies, Prolume Ltd., Pinetop-Lakeside, AZ, USA) added for 5 min. […] BRET ratios were adjusted by subtracting the ratios obtained when RLuc fusion proteins were expressed alone. Each data point represents a technical quadruplicate.

[5] = Fig.5a, linear regression vs Log [Agonist] (M), 60 values, best-fit
[6] = GB1a/2, GABA curve with 1μM peptide, different curve for each data set
[7] = GB1a/2, GABA curve with 10μM peptide, different curve for each data set

Substance	Kd ([1]; SD1/2 30 μM, peptide 300 μM in syringe, one-site binding model) [nM]	effect on constitutive receptor activity (in words) (GB1a/2 receptors [2]; 1 and 10 μM)	effect on GABA dose-response curve (in words) (GB1a/2 receptors [2]; 1 h pre-incubation, 1 or 10 µM, absence or presence of APP695 in cis)	1/slope (linear regression of dose-response) (GB1a/2 receptors [2]; [5])	Slope (linear regression of dose-response) (GB1a/2 receptors [2]; [5])	X-intercept (linear regression of dose-response) (GB1a/2 receptors [2]; [5])	Y-intercept (linear regression of dose-response) (GB1a/2 receptors [2]; [5])	Bottom (best-fit) (GB1a/2 receptors [2]; [6])	Top (best-fit) (GB1a/2 receptors [2]; [6])	Bottom (best-fit) (GB1a/2 receptors [2]; [7])	Top (best-fit) (GB1a/2 receptors [2]; [7])	LogEC50 of GABA (best-fit) (GB1a/2 receptors [2]; GB1a/2, Log [GABA] (M), with 10μM peptide, different curve for each data set, Std. Error r37, 95% CI r43)	agonistic effect on FLuc activity (in words) (GB1a/2 receptors [2]; up to 100 μM)	GB2 protein levels at glutamatergic synapses (in words) [3]	BRET change by peptide alone (in words) (GB1a/2 receptors [4])	BRET change by peptide with APP695 (in words) (GB1a/2 receptors [4])	GABA-induced BRET change in presence of peptide (in words) (GB1a/2 receptors [4])	binding to SD1/2 (in words) [1]	Kd ([1]; scrambled control) [nM]
Ac-DDSDVWWGGADTDYADG-NH2 [APP17]	543	did not influence constitutive GB1a/2 receptor activity	did not significantly influence the GABA dose-response curve	119.3	0.008385	-45.72	0.3833	0.3131	1.014	0.3136	0.9838	-6.42	lacked agonistic properties at concentrations up to 100 μM	did not result in a significant difference in GB2 protein levels at glutamatergic synapses	did not significantly influence receptor activity	had no effect on GBR activity	GABA-induced BRET decreases were similar		
Ac-DWGADTVSGDGYDAWDD-NH2 [sc-APP17, scrambled sc-APP17 peptide]														did not result in a significant difference in GB2 protein levels at glutamatergic synapses	did not significantly influence receptor activity	had no effect on GBR activity	GABA-induced BRET decreases were similar	no detectable binding to SD1/2; also recorded: no binding to SD1/2 protein	> 300000
